Measurements as given in the RNAGym collection of RNA variant scans (doi:10.1101/gad.245936.114).
This sample is rich in variants without activity.

B1: tRNA (parent)
chain: CUCUCGGUAGCCAAGUUGGUUUAAGGCGCAAGACUUUAAUUUAUCACUACGAAAUCUUGAGAUCGGGCGUUCGACUCGCCCCCGGGAGAUUUUUUCCUCGAGCAA

Variants of: B1
Assay: nonsense suppression (GFP-seq) (ratio to wild type); higher = more function; SUP4oc tRNA, yeast GFP reporter sort-seq
Outline: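 Yeast were grown in raffinose/galactose medium with 80 mg/L adenine, each strain bearing a genome-integrated ochre-suppressor tRNA variant from a ~3% random-mutation library, a galactose-driven GFP ochre reporter, and RFP. After sorting into GFP/RFP bins, every bin was sequenced on an Illumina platform at phred ≥30. The GFPSEQ value, a measure of nonsense suppression, is the weighted bin median GFP/RFP relative to the unmutated parent tRNA, using each variant's estimated cell share per bin as the weight. Only variants with ≥100 reads and ≥30 cells were included.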

Variant | nonsense suppression
C3G G61U G67C | ≤ 0.026
C3G G65C | ≤ 0.026
C3G G65C C79U | ≤ 0.026
C3G G65C G78A | ≤ 0.026
C3G G66C | ≤ 0.026
C3G G69U | ≤ 0.026
C3G G73U A74C | ≤ 0.026
C3G G73U G86U | ≤ 0.026
C3G G78C | ≤ 0.026
C3G G85A G86U | ≤ 0.026
C3G G85U | 0.0369
C3G G88C | ≤ 0.026
C3G U4A A23C A60C G69U | ≤ 0.026
C3G U4C | 0.399
C3G U8A C11G U22G C27G C56U C82A | ≤ 0.026
C3G U8A G25U C77G | ≤ 0.026
C3G U8C G61C G65A | ≤ 0.026
C3G U8G C27U A31C G67A | ≤ 0.026
C3G U17G | ≤ 0.026
C3G U17G G84C | ≤ 0.026
C3G U20C | 0.0788
C3G U20G A33C | ≤ 0.026
C3G U20G C79U | ≤ 0.026
C3G U20G G69A U70C | ≤ 0.026

Variant | nonsense suppression
C3G U21A | ≤ 0.026
C3G U21C A24C G73U | ≤ 0.026
C3G U21C C83A | ≤ 0.026
C3G U21G G28C U63C C82A | ≤ 0.026
C3G U22G | ≤ 0.026
C3G U35G C81U | ≤ 0.026
C3G U57C G78C | ≤ 0.026
C3G U57G | ≤ 0.026
C3G U58A C64U G65A | ≤ 0.026
C3G U58C G61A U71C G86C | ≤ 0.026
C3G U58C G66C | ≤ 0.026
C3G U70G | ≤ 0.026
C3G U70G G88C | ≤ 0.026
C3U A9C G88C | ≤ 0.026
C3U A9G C68A | ≤ 0.026
C3U A9G G28U | ≤ 0.026
C3U A9G U71C | ≤ 0.026
C3U A9U A14C C27A A60U | ≤ 0.026
C3U A9U A31U C83U G88A | ≤ 0.026
C3U A9U G88A | ≤ 0.026
C3U A13G C29A C34A | ≤ 0.026
C3U A13G C83A | ≤ 0.026
C3U A13G G26C U63A G65U | ≤ 0.026
C3U A13G U16A G67A | ≤ 0.026

Variant | nonsense suppression
C3U A13G U58G A60C | ≤ 0.026
C3U A13G U63G U76A G85C | ≤ 0.026
C3U A13U C27A | ≤ 0.026
C3U A13U U20G U63C C68A U70G | ≤ 0.026
C3U A14C G25U U58A G69A | ≤ 0.026
C3U A14G | ≤ 0.026
C3U A14G A24G | ≤ 0.026
C3U A14G G19A A33G A74C | ≤ 0.026
C3U A14G G67U | ≤ 0.026
C3U A14U | ≤ 0.026
C3U A23C A33U G86U | ≤ 0.026
C3U A23C C27G C34A C81G G86A | ≤ 0.026
C3U A23C G65U U76A G84U | ≤ 0.026
C3U A23C U70C | ≤ 0.026
C3U A23G A31G C56G C72A | ≤ 0.026
C3U A23G U57A | ≤ 0.026
C3U A23U C81A | ≤ 0.026
C3U A23U U70G | ≤ 0.026
C3U A24C G61C A89G | ≤ 0.026
C3U A24G | ≤ 0.026
C3U A24G A60U | ≤ 0.026
C3U A24U G28A | ≤ 0.026
C3U A30C G32A C34A U76A | ≤ 0.026
C3U A30U G69C | ≤ 0.026

Variant | nonsense suppression
C3U A33C G59U G61A A74G | ≤ 0.026
C3U A33C G66A C72G | ≤ 0.026
C3U A33U | 0.027
C3U A54G U55C | ≤ 0.026
C3U A54U C83A A89U | ≤ 0.026
C3U A60G | ≤ 0.026
C3U A62U G69C | ≤ 0.026
C3U A74C | ≤ 0.026
C3U A87C | ≤ 0.026
C3U A87G | ≤ 0.026
C3U A89C | 0.0874
C3U C5U C12G G73C C79A | ≤ 0.026
C3U C5U C27A G28C C29A G59U G85A | ≤ 0.026
C3U C5U C29A | ≤ 0.026
C3U C5U G85C | ≤ 0.026
C3U C11A A13G G85C | ≤ 0.026
C3U C11A G15U U55G A62U | ≤ 0.026
C3U C11G | ≤ 0.026
C3U C11G A14G U20A | ≤ 0.026
C3U C11G G15U A33C | ≤ 0.026
C3U C11U | ≤ 0.026
C3U C11U A13G U21G U58A G84C | ≤ 0.026
C3U C11U C75U | ≤ 0.026
C3U C11U U57C A60C | ≤ 0.026

Variant | nonsense suppression
C3U C12A A13G G66C | ≤ 0.026
C3U C12A A13G G66C C79A | ≤ 0.026
C3U C12A A14U U16A G84A G88C | ≤ 0.026
C3U C12A C79A G85U | ≤ 0.026
C3U C12G G88U | ≤ 0.026
C3U C12G U16C G67A | ≤ 0.026
C3U C12U | 0.039
C3U C12U A30U | ≤ 0.026
C3U C12U G18U | ≤ 0.026
C3U C27G | 0.0543
C3U C27G U35A U58A G65A A74G | ≤ 0.026
C3U C27U U63G G65C | ≤ 0.026
C3U C27U U76C G88C | ≤ 0.026
C3U C29G C83G G88C | 0.993
C3U C29G U63G | ≤ 0.026
C3U C29U A33G | ≤ 0.026
C3U C34A U58A G67U G86A | ≤ 0.026
C3U C34G | ≤ 0.026
C3U C34G C72G C81U | ≤ 0.026
C3U C34G C72U C81U | ≤ 0.026
C3U C34G G69A | ≤ 0.026
C3U C34U C77G | ≤ 0.026
C3U C56A A87U | ≤ 0.026
C3U C56U | ≤ 0.026

Variant | nonsense suppression
C3U C68G C72A | ≤ 0.026
C3U C68U | 0.201
C3U C75U | 0.539
C3U C77G | 0.0323
C3U C80U | 0.0737
C3U G6A C11G G19C A54G G67A | ≤ 0.026
C3U G6A G7A G19U C79A G86C | ≤ 0.026
C3U G6C G15A G32C U63A C64A U70A | ≤ 0.026
C3U G6C U70A C72G C79U | ≤ 0.026
C3U G6U G7A G25A | ≤ 0.026
C3U G7A U57G C82U C83G | ≤ 0.026
C3U G7C U58A A74G | ≤ 0.026
C3U G10A | 0.0262
C3U G10A C27A C64U G88C | ≤ 0.026
C3U G10C U17G U22A G25C | ≤ 0.026
C3U G10U C11G C29G A30U A62U G67A | ≤ 0.026
C3U G10U U20C A33G G86U | ≤ 0.026
C3U G15A U20G | ≤ 0.026
C3U G18C | ≤ 0.026
C3U G18C C56A | ≤ 0.026
C3U G18C C64G | ≤ 0.026
C3U G19C | ≤ 0.026
C3U G19C A33U U35G A87U | ≤ 0.026
C3U G19C G59U A60G C72A | ≤ 0.026

Variant | nonsense suppression
C3U G19C U58C A62U | ≤ 0.026
C3U G19U A24G | ≤ 0.026
C3U G19U A33G | ≤ 0.026
C3U G19U C68U G84U | ≤ 0.026
C3U G19U C81G G84U | ≤ 0.026
C3U G19U U22G U71C C82A | ≤ 0.026
C3U G25A C29U | ≤ 0.026
C3U G25A C29U A60C | ≤ 0.026
C3U G25A U63C | ≤ 0.026
C3U G26C G28A | ≤ 0.026
C3U G28A U57C G66U | ≤ 0.026
C3U G28C C34U | ≤ 0.026
C3U G32A C75G | ≤ 0.026
C3U G32A G67U G69C | ≤ 0.026
C3U G32A G84U | ≤ 0.026
C3U G59U | ≤ 0.026
C3U G66C | 0.0288
C3U G67A A89G | ≤ 0.026
C3U G67U | ≤ 0.026
C3U G73C | ≤ 0.026
C3U U4A C5A | ≤ 0.026
C3U U4A G10U A14G A54G | ≤ 0.026
C3U U4C A62G G84C | ≤ 0.026
